Broadly, the viscosity is the internal friction of a fluid under shear. A high value points to a thick fluid.

± gives the uncertainty stated by the source. A number of entries come with more than one value. This list holds those alone. The source may hold further records. The records of an entry repeat one measurement (runs, samples, wells, individuals or studies). What stands in brackets tells the records apart. The letters are not those of the source and start again with each entry.

Consider `COCCO`, for which the viscosity reads like this: (298.15 K, 101 kPa) 1.722 ± 0.14 mPa·s [study A] and 1.562 ± 0.012 mPa·s [study B] and 1.547 ± 0.037 mPa·s [study C] and 1.551 ± 0.033 mPa·s [study D]; (303.15 K, 101 kPa) 1.573 ± 0.064 mPa·s [study A] and 1.43 ± 0.02 mPa·s [study B] and 1.968 ± 0.036 mPa·s [study C] and 1.968 ± 0.5 mPa·s [study D]; (308.15 K, 101 kPa) 1.492 ± 0.035 mPa·s [study A] and 1.39 ± 0.12 mPa·s [study B] and 1.229 ± 0.016 mPa·s [study C] and 1.392 ± 0.057 mPa·s [study D] and 1.275 ± 0.009 mPa·s [study E] and 1.49 ± 0.15 mPa·s [study F]; (308.15 K, 101.33 kPa) 1.189 ± 0.058 mPa·s [study A] and 1.189 ± 0.01 mPa·s [study B] and 1.326 ± 0.01 mPa·s [study C] and 1.315 ± 0.01 mPa·s [study D]; (313.15 K, 101 kPa) 1.219 ± 0.029 mPa·s [study A] and 1.226 ± 0.05 mPa·s [study B] and 1.148 ± 0.069 mPa·s [study C] and 1.25 ± 0.03 mPa·s [study D] and 1.098 ± 0.011 mPa·s [study E] and 1.18 ± 0.02 mPa·s [study F] and 1.218 ± 0.12 mPa·s [study G]; (318.15 K, 101 kPa) 1.031 ± 0.017 mPa·s [study A] and 1.129 ± 0.027 mPa·s [study B] and 1.095 ± 0.045 mPa·s [study C] and 1.04 ± 0.063 mPa·s [study D] and 1.071 ± 0.008 mPa·s [study E] and 1.027 ± 0.1 mPa·s [study F] and 1.128 ± 0.11 mPa·s [study G].
For the compound `CCCC(=O)O`, the viscosity runs as follows: (298.15 K, 101 kPa) 1.529 ± 0.04 mPa·s [study A] and 1.502 ± 0.04 mPa·s [study B] and 1.466 ± 0.038 mPa·s [study C] and 1.469 ± 0.014 mPa·s [study D] and 1.528 ± 0.046 mPa·s [study E] and 1.811 ± 0.014 mPa·s [study F] and 1.528 ± 0.14 mPa·s [study G]; (303.15 K, 100 kPa) 1.385 mPa·s [study A] and 1.386 ± 0.056 mPa·s [study B] and 1.39 ± 0.04 mPa·s [study C]; (308.15 K, 100 kPa) 1.242 mPa·s [study A] and 1.243 ± 0.051 mPa·s [study B] and 1.24 ± 0.04 mPa·s [study C]; (308.15 K, 101 kPa) 1.295 ± 0.034 mPa·s [study A] and 1.27 ± 0.034 mPa·s [study B] and 1.242 ± 0.039 mPa·s [study C] and 1.457 ± 0.011 mPa·s [study D] and 1.242 ± 0.12 mPa·s [study E]; (313.15 K, 100 kPa) 1.099 mPa·s [study A] and 1.099 ± 0.045 mPa·s [study B] and 1.1 ± 0.03 mPa·s [study C]; (318.15 K, 100 kPa) 0.9562 mPa·s [study A] and 0.956 ± 0.039 mPa·s [study B] and 0.96 ± 0.03 mPa·s [study C]. Also, the viscosity (318.15 K, 101 kPa) was 1.078 ± 0.029 mPa·s [study A] and 0.9562 ± 0.033 mPa·s [study B] and 1.103 ± 0.0087 mPa·s [study C] and 0.9562 ± 0.095 mPa·s [study D].

For the origin of these results see the CheMixHub viscosity set.
